Test results published in PubChem BioAssay AID1458 (National Center for Advancing Translational Sciences (NCATS), 2008).
Hit rate of the full screen: of about 210,000 compounds, about 5,900 (2.8%) were called active. Inconclusive results, whose numbers are uncertain, are shown with a selection of clear calls. The call rests on the fitted dose curve; in most records, active means well fitted activation curve with a large enough effect; inconclusive means small, poorly fitted or top-dose-only effect; inactive means no such curve, though single readings can be large or run the other way. Potencies beside an inconclusive call are fits to weak or partial responses and may not hold up.

Assay: qHTS Assay for Enhancers of SMN2 Splice Variant Expression; further: nearly all actives have a fitted effect of over 55% in size; on activity change, positive = activation: % of control where 0% means no effect
Conditions: HEK293 SMN2-luciferase splicing reporter, luminescence, 30-36 h; activity change, positive = activation: at 46.1 µM (top of the series)
Excerpt: NIH Chemical Genomics Center [NCGC] NIH Molecular Libraries Probe Production centers Network [MLPCN] MLPCN Grant: R03 MH084179-01 Assay Submitter (PI): Elliot Androphy NCGC Assay Overview: Spinal muscular atrophy (SMA) is caused by insufficient levels of the survival motor neuron protein SMN. The SMN locus on chromosome 5q13 contains two inverted copies of SMN called SMN1 and SMN2 which are 99% identical at the amino acid level. SMN1 is a fully functional protein and SMN2 skips exon 7 90% of the time. Skipping of exon 7 produces non-functional protein product. 10% of the SMN2 protein includes exon 7 and is fully functional. In the SMA disease state, mutations in the SMN1 locus are the cause of the disease state. Because only 10% of SMN2 is of the fully functional form, it is not sufficient to overcome the deficiency produced by the loss of the SMN1 product. A therapy that either increase the amount of SMN2 product made or to increase the inclusion of exon 7 has been proposed for the treatment of SMA. We have designed an assay to identify small molecules that can increase the amount of functional SMN2 product by appending a luciferase reporter gene after the native SMN2 gene, such that inclusion of exon 7 in the expressed product places the luciferase sequence in frame, thus generating functional luciferase enzyme.
NCGC Assay Protocol Summary: This screen utilizes a luciferase reporter gene assay, combining the promoter and splicing based cassettes in tandem with the major portion of the native SMN2 cDNA, and then transfected into HEK293 cells. Compounds that increase luciferase signal presumably enhance expression of the functional SMN2 splice variant. Passaging media contained DMEM w/ glutamax (+phenol red) 10% FCS, 1x pen/strep, 200 ug/ml hygro, 1x sodium pyruvate. Assay media contained DMEM w/ glutamax (-phenol red) 10% FCS, 1x pen strep, 1x pyruvate Sequence, Parameter, Value, Description (1) Cells, […], 2000 cells/well, 1536 TC treated White solid bottom plate (2) Time, 10-12 hours, 37C 5% CO2 (3) Compound, 23 nl, MLSMR Library (4) Control Compound, 23 nL, Sodium butyrate st 4.5mM (final) conc (5) Time, 30-36 hours, 37C 5% CO2 (6) Reagent, 3 ul, One Glo (TM) from Promega (7) Time, 5-15 minutes, Room temp (8) Detector, Viewlux: luminescent read, 60 second integration, high speed 2x binning Keywords: Spinal muscular atrophy, SMA, SMN2, high throughput screening, MLSMR, MLPCN, NIH Roadmap, qHTS and NCGC
Potency means the concentration at half of the fitted maximal effect; tags describe the fitted curve by direction and shape.

Compound	Potency	activity change, positive = activation
Nc1c(C(=O)Nc2ccc3c(c2)OCCO3)nnn1CCc1ccccc1	inconclusive: 35.5 µM [activator, single point]	
COc1ccccc1C1=NN(C(=S)Nc2ccccc2)C(c2ccco2)C1 (stereo not given)	inconclusive: 35.5 µM [activator, single point]	
CCN(c1nc(N)c(C(=O)N=C(N)N)nc1Cl)C(C)C	inactive	
CCOc1ccc2nc(-c3ccc(OC)c(OC)c3)cc(C(=O)O)c2c1	inconclusive: 0.398 µM [activator, full curve]	
Cn1c2ccccc2c2nnc(SCc3ccc4nonc4c3)nc21	inconclusive: 35.5 µM [activator, partial curve, poor fit]	
c1ccc(-c2noc(-c3cccnc3)n2)cc1	inconclusive: 17.8 µM [activator, single point]	
CCOC(=O)/C(=N/Nc1ccc(Cl)cc1)Sc1nnnn1-c1ccc(C)cc1	inconclusive: 17.8 µM [activator, partial curve, poor fit]	
COc1ccc(/C=N/NC(=O)CC(=O)N/N=C/c2ccc(OC)cc2)cc1	inconclusive: 5.62 µM [activator, single point]	
CN1CCN(Cc2cc(=O)oc3cc4c(cc23)CCC4)CC1	inconclusive: 28.2 µM [activator, single point]	
O=C(O)/C=C\C(=O)Nc1ccc2c(c1)C(=O)c1cc(F)ccc1-2		inactive: -6.85% [at 9.22 µM]
CS(=O)(=O)Nc1ccc(C2=NN(S(C)(=O)=O)C(c3ccccc3)C2)cc1 (stereo not given)	inconclusive: 6.31 µM [activator, full curve, poor fit]	
COc1ccc(-c2cc3n(n2)CCc2nc4ccccc4n2-3)cc1	inconclusive: 12.6 µM [activator, single point]	
Cc1cc(NC(=O)CSc2cn(CCNC(=O)c3ccccc3)c3ccccc23)no1	inactive	
COc1ccc(-c2noc(CCC(=O)Nc3nc4ccccc4s3)n2)cc1	inactive	
CC(=O)c1ccc(NC(=O)Nc2ccc3c(c2)nc(C)n3C)cc1	inconclusive: 22.4 µM [activator, single point]	
CCOc1ccc(CCn2c(-c3ccco3)nc3ccccc3c2=O)cc1OCC	inconclusive: 22.4 µM [activator, single point]	
Cc1nc(NC(=O)c2ccc(Br)s2)sc1C(=O)N(C)C	active: 11.2 µM	
Cc1nc2ccc(NC(=O)Cc3ccsc3)cc2s1	inconclusive: 25.1 µM [activator, single point]	
CCCCCSc1nc(O)cc(=O)[nH]1	inconclusive: 0.562 µM [activator, full curve]	
Cc1ccc2nc(Cc3ccc(N)cc3)oc2c1	inconclusive: 11.2 µM [activator, partial curve]	
Cc1ccc(-c2nnn(CC(=O)N(Cc3ccccc3)C(C(=O)NC(C)(C)C)c3ccncc3)n2)o1 (stereo not given)		inconclusive: 36.8% [activator]
O=C(O)c1ccc(C(=O)c2ccc3c(c2)C(=O)N(Cc2ccco2)C3=O)cc1	inconclusive: 0.282 µM [activator, full curve, poor fit]	
CN(C)Cc1cc(O)c(O)c(CN(C)C)c1		inactive: -10.8% [at 9.22 µM]

Compound	Potency	activity change, positive = activation
CCC1(C)NC(=O)N(CC(=O)Nc2sc3c(c2C(N)=O)CCC3)C1=O (stereo not given)	inactive	
COc1ccccc1CN1CCC2(CC1)CCN(C(=O)c1cccc(F)c1)CC2	inactive	
COc1ccc(NC(=O)c2cccc(F)c2)cc1Cl	inconclusive: 12.6 µM [activator, single point]	
CC(=O)Nc1cccc(N=NN2CCCCC2)c1	inactive	
CCOc1ccccc1C(=O)Nn1c(C2CCC2)nc2ccccc2c1=O	inconclusive: 0.708 µM [activator, full curve, poor fit]	
COc1ccccc1NC(=S)Nc1ccccn1	inconclusive: 20 µM [activator, partial curve, poor fit]	
C(=N\Nc1ncnc2sc3c(c12)CCC3)/c1ccncc1	inconclusive: 22.4 µM [activator, single point]	
CC1=NNC(=O)c2ccccc2O1	inactive	
CCCCC[C@H](O)/C=C/C=C\CCCCCCCC(=O)O	inactive	
Cc1ccc(NC(=O)c2c(O)c3ccccc3n(C)c2=O)nc1	inconclusive: 17.8 µM [activator, single point]	
CS(=O)(=O)N(CC(=O)Nc1ccccc1C(=O)NCc1ccco1)c1ccccc1F	inactive	
O=C(Nc1ccc2[nH]c(=O)c(=O)[nH]c2c1)c1cccc(F)c1	inconclusive: 0.0022 µM [activator, full curve, poor fit]	
Nc1ccc(Sc2cnn(-c3ccccc3)c(=O)c2Cl)cc1	inconclusive: 3.55 µM [activator, single point]	
COc1ccc(-c2noc(-c3ccc(C)cc3Cl)n2)cc1OC	inactive	
CCOc1ccc(C(=O)NCC2CCCO2)cc1 (stereo not given)	inconclusive: 10 µM [activator, partial curve]	
CCc1ccccc1NC(=O)Cn1c(=O)n(CC(=O)NCCc2ccccc2)c(=O)c2ccccc21	inconclusive: 31.6 µM [activator, single point]	
CCc1cc2c(cc3c(=O)n(CC(=O)NCc4cc(Br)ccc4OC)ncn32)s1	inconclusive: 0.631 µM [activator, full curve, poor fit]	
NS(=O)(=O)c1ccc(Nc2nc(-c3ccccc3)cs2)cc1	inactive	
S=C(Nc1ccc2nsnc2c1)N1CCCCC1	inconclusive: 22.4 µM [activator, single point]	
COC1=C/C(=C/c2c(N)n3nc(-c4ccc(C)cc4)sc3nc2=O)C=CC1=O	inconclusive: 15.8 µM [activator, single point]	
O=C(CCCc1c[nH]c2ccccc12)N1CCN(c2ccc(N3CCOCC3)nn2)CC1	inconclusive: 3.55 µM [activator, single point]	
CCOc1ccc(-n2c(SCc3ccc(C(=O)OC)o3)nc3c(c2=O)SCC3)cc1	inconclusive: 1.78 µM [activator, full curve]	
